Results on six molecules are retold here after PMC12136788.

The other results are listed elsewhere or left out.

The labels stand for the following.
T1: UNK ZnF1-3 (human, UniProt Q9C0B0 31-174)
T1 sequence: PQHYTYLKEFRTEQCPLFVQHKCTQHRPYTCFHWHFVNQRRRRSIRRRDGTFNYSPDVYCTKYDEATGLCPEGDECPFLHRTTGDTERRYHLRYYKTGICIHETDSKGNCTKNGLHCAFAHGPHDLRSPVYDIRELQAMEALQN

B1: chr14:103969519:103969520:+_ENSG00000075413_ENST00000216288|hu_mus|FALSE|FALSE (ssRNA)
RNA: GGGAGUUCUACAGUCCGACGAUCAUUACUGGGUUACAGCUUUAGCUCAUUGGCAAUUUUGGAAGCAAUAUUUUUGAAAGCUAUGGAUGUCCCUGAUAUCCGCUUAAACCGGACUCCAUUCAGAGACAGUCUUGGCAGCUUACACAACAGAGGAUUGAGCAUCA
B2: chr3:169711627:169711628:+_ENSG00000008952_ENST00000337002|hu_mus|motif|central (ssRNA)
RNA: GGGAGUUCUACAGUCCGACGAUCCUAAAAACAUACCUUACAUGGUUUUUGUUUUACAAAUUUCAGUGUUGAGAAAUGUCGGAAUAAUAAGUAACAAUUAAAAUAAAAUGUUUUAUUUGUAAAUUAUGUACAGAAUACAUCUUACAACAGAGGAUUGAGCAUCA
B3: chr16:20502619:20502620:+_ENSMUSG00000003235_ENSMUST00000003320|mus_mus|FALSE|FALSE (ssRNA)
RNA: GGGAGUUCUACAGUCCGACGAUCGUCAGCACAAACAGCUGAGUACAUGUGUAGGUUGGAGACCCGGGCACCAUAUUCCCUAGUUGUCACAUGCAAGUGAAUCUGGUUUCCUAGGACCUCCUCAUUCAUUAAUAUGCCUCGUACCAACAGAGGAUUGAGCAUCA
B4: chr13:100192331:100192332:-_ENSMUSG00000052727_ENSMUST00000064762|mus_mus|FALSE|FALSE (ssRNA)
RNA: GGGAGUUCUACAGUCCGACGAUCUAGCAAAUGAUUAAAUUUAUAAAACGAGUAUUAGAAAGCUCCUAAAUUUCAUAAGCUAUUGGAAACACUUAAAACAUUCAUAUACACUGGGGAAACCAUUCACUAUGAUAUGUAACGUUACAACAGAGGAUUGAGCAUCA
B5: chr5:123980014:123980015:-_ENSG00000168916_ENST00000504926|hu_mus|FALSE|FALSE (ssRNA)
RNA: GGGAGUUCUACAGUCCGACGAUCAGGAGAGACAGCCCGGUAUGCAGGGUGGCUGGGGUCAUACAUCUGUGGGUAAGGAUAAGCAUGCAAGUAUUGUAUGUAGGACUGGUGCUGACUCAUGGGUGAGGACACGGCCACUCGUGUCAACAGAGGAUUGAGCAUCA
B6: chr1:39494447:39494448:+_ENSG00000168653_ENST00000372967|hu_mus|hu_hu_hu_mus_False|8_8 (ssRNA)
RNA: GGGAGUUCUACAGUCCGACGAUCGCACCGAGCGGCGUUCUUAUAGGGCUGUUCUGCGCUUAGGAACAUAAAGUGCCGGUCCAGGCUGAUGCCCAGCUUUUUCUGUAUGUCAAGGAAAGGCAUGGCUGAUGCUCGUGCUUGUCACAACAGAGGAUUGAGCAUCA

The test deals with T1, UNK ZnF1-3. Nature of the test: nsRBNS (natural sequence RNA bind-n-seq); RBNS binding buffer (assumed for nsRBNS): 25 mM Tris pH 7.5, 150 mM KCl, 3 mM MgCl2, 0.01% Triton X-100, 500 ug/ml BSA, 20 U/ml SUPERase-In, 4 C; UNK is unkempt and MSI1 is Musashi-1; names of the RNAs are library labels; protein concentration not given here; high values mean tight binding.
For B1, the binding signal came to 0.596 enrichment R.

For B2, the binding signal was found to be 0.501 enrichment R.

In turn, B3 showed a binding signal of 0.737 enrichment R. As to B4, the binding signal amounted to 1.15 enrichment R. The same measure for B5: 0.665 enrichment R; for B6: 0.849 enrichment R.
